Source: patent publication US20050147610A1 (AbbVie / Abbott, published 2005)

What was measured:
[1] = target: recombinant mature human IL-18 (preparation not specified) (human, UniProt Q14116 37-193); assay: cell-based or functional assay
[2] = target: natural human IL-18 (endogenous, human whole blood) (human, UniProt Q14116 37-193); assay: cell-based or functional assay
recombinant human IL-1α = target: T1, recombinant human IL-1α (human, UniProt P01583 113-271); assay: BIACORE, antibody captured, cytokine in solution
T1 sequence (looked up): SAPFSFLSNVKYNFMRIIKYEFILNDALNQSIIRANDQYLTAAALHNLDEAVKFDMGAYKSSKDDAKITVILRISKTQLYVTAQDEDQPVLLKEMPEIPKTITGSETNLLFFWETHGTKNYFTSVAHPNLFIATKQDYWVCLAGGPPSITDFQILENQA

recombinant human IL-1β = recombinant human IL-1β (human, UniProt P01584 117-269); assay: BIACORE, antibody captured, cytokine in solution
recombinant human IL-2 = recombinant human IL-2 (human, UniProt P60568); assay: BIACORE, antibody captured, cytokine in solution
recombinant human IL-3 = target: T2, recombinant human IL-3 (human, UniProt P08700 20-152); assay: BIACORE, antibody captured, cytokine in solution
T2 sequence (looked up): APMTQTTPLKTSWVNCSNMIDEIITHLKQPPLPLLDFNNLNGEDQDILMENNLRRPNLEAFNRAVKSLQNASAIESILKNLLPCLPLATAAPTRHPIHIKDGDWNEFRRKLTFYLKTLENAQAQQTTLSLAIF

recombinant human IL-4 = target: T3, recombinant human IL-4 (human, UniProt P05112 25-153); assay: BIACORE, antibody captured, cytokine in solution
T3 sequence (looked up): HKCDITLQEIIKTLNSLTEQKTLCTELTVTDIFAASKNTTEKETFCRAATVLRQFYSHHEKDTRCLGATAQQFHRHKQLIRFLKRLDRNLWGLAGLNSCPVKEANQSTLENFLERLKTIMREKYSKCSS

recombinant human IL-5 = recombinant human IL-5 (human, UniProt P05113 20-134); assay: BIACORE, antibody captured, cytokine in solution
recombinant human IL-6 = recombinant human IL-6 (human, UniProt P05231 30-212); assay: BIACORE, antibody captured, cytokine in solution
recombinant human IL-8 = recombinant human IL-8 (human, UniProt P10145 28-99, limits assumed); assay: BIACORE, antibody captured, cytokine in solution
recombinant human IL-9 = recombinant human IL-9 (human, UniProt P15248); assay: BIACORE, antibody captured, cytokine in solution
recombinant human IL-10 = recombinant human IL-10 (human, UniProt P22301 19-178); assay: BIACORE, antibody captured, cytokine in solution
recombinant human IL-12 = target: T4, recombinant human IL-12 (human, UniProt P29459 23-219; P29460 23-328); assay: BIACORE, antibody captured, cytokine in solution
T4 construct: the two subunits are the natural heterodimer
T4 sequence (looked up) 1: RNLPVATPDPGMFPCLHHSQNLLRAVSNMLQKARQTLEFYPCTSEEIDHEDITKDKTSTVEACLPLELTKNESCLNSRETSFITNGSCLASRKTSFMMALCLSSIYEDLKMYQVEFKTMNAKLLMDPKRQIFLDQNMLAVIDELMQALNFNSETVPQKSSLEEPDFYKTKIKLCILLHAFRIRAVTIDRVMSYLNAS
T4 sequence (looked up) 2: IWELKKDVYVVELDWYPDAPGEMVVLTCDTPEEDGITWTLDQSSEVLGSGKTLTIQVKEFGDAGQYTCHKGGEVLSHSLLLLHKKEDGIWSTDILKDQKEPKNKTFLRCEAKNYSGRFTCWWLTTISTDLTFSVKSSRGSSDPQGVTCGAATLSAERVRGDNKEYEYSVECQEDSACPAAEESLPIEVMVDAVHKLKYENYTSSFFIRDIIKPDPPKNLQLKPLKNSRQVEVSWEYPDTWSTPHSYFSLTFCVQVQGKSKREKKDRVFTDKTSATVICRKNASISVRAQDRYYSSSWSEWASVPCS

recombinant human IL-16 = target: T5, recombinant human IL-16 (human, UniProt Q14005 1212-1332, limits assumed); assay: BIACORE, antibody captured, cytokine in solution
T5 sequence (looked up): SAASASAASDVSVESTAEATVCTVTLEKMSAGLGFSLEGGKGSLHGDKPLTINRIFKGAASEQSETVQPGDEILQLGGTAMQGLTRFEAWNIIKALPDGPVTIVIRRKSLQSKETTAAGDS

recombinant human IL-17 = recombinant human IL-17 (human, UniProt Q16552 24-155, limits assumed); assay: BIACORE, antibody captured, cytokine in solution
recombinant human IL-21 = recombinant human IL-21 (human, UniProt Q9HBE4 part only, limits assumed); assay: BIACORE, antibody captured, cytokine in solution
recombinant human TNF = recombinant human TNF (human, UniProt P01375 part only); assay: BIACORE, antibody captured, cytokine in solution
[3] = target: T6, recombinant human LT (lymphotoxin) (human, UniProt P01374 35-205, limits assumed); assay: BIACORE, antibody captured, cytokine in solution
T6 sequence (looked up): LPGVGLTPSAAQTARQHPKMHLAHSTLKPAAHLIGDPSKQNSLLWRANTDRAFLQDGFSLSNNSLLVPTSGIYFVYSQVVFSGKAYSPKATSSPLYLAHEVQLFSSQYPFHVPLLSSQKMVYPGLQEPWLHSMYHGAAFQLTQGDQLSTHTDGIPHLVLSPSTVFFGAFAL

recombinant human LTα1β2 = target: T7, recombinant human LTα1β2 (human, UniProt P01374 35-205; Q06643 49-244, limits assumed); assay: BIACORE, antibody captured, cytokine in solution
T7 construct: Copies read from the printed name
T7 sequence (looked up) 1: T6 sequence (looked up)
T7 sequence (looked up) 2: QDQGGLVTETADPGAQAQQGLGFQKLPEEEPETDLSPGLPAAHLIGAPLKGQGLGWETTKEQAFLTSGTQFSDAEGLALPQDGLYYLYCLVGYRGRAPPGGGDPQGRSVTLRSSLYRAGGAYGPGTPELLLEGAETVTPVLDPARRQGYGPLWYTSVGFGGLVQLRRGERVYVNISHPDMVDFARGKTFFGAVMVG

Sequence of recombinant human TNF (P01375 77-233 limits assumed): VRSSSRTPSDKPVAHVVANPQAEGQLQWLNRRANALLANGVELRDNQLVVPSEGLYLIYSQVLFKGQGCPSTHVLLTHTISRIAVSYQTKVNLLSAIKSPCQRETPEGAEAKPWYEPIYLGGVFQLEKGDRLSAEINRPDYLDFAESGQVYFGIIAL
Sequence of recombinant human IL-2 (P60568 21-153 limits assumed): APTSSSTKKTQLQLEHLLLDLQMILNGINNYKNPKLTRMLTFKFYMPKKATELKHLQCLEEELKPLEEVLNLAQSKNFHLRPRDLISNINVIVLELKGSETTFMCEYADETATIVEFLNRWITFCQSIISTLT
Sequence of recombinant human IL-5 (P05113 20-134 limits assumed): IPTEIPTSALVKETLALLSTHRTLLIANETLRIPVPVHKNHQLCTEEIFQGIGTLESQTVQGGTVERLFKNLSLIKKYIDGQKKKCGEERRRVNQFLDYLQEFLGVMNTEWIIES
Sequence of recombinant human IL-17 (Q16552 24-155 limits assumed): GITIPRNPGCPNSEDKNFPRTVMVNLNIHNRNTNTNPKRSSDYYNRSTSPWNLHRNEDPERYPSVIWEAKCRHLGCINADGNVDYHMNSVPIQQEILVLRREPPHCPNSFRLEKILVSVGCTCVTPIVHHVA
Sequence of recombinant human IL-10 (P22301 19-178 limits assumed): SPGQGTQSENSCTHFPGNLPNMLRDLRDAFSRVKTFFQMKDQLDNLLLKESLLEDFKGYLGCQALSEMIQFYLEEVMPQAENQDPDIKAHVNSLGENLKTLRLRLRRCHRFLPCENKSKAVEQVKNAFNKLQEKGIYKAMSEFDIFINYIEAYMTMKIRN
Sequence of recombinant human IL-6 (P05231 30-212 limits assumed): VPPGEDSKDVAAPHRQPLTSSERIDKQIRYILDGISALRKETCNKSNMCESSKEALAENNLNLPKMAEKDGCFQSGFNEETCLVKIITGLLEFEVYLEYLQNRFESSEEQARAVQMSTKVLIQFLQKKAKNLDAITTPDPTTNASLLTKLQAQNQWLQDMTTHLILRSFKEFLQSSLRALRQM
Sequence of recombinant human IL-9 (P15248 19-144 limits assumed): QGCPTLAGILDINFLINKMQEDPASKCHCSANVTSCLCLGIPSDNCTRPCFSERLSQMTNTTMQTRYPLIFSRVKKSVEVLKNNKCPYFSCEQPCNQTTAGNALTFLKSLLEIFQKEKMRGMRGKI
Sequence of recombinant human IL-21 (Q9HBE4 32-162 limits assumed): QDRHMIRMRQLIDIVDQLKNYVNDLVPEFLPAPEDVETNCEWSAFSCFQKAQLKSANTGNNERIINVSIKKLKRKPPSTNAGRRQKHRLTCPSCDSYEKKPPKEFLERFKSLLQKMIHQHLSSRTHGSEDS
Sequence of recombinant human IL-8 (P10145 28-99 limits assumed): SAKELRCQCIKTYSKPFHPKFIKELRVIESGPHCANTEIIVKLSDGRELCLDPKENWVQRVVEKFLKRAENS

B1: 2.5(E)mg1 (antibody, human IgG1, kappa, L234A L235A)
heavy: ZVQLVQSGTEVKKPGESLKISCKGSGYTVTSYWIGWVRQMPGKGLEWMGFIYPGDSETRYSPTFQGQVTISADKSFNTAFLQWSSLKASDTAMYYCARVGSGWYPYTFDIWGQGTMVTVSSASTKGPSVFPLAPSSKSTSGGTAALGCLVKDYFPEPVTVSWNSGALTSGVHTFPAVLQSSGLYSLSSVVTVPSSSLGTQTYICNVNHKPSNTKVDKKV[letters of human IgG1 Fc with changes not shown]
light: EIVMTQSPATLSVSPGERATLSCRASESISSNLAWYQQKPGQAPRLFIYTASTRATDIPARFSGSGSGTEFTLTISSLQSEDFAVYYCQQYNNWPSITFGQGTRLEIKRTVAAPSVFIFPPSDEQLKSGTASVVCLLNNFYPREAKVQWKVDNALQSGNSQESVTEQDSKDSTYSLSSTLTLSKADYEKHKVYACEVTHQGLSSPVTKSFNRGEC
notes: Human IgG1/kappa with L234A, L235A (mg1); also called 2.5(E)mg1 HuMAb; anti-IL-18 HuMAb 2.5(E)mg1
KG-1 bioassay IC50 [1]: < 0.5 nM | human WBA IC50 [2]: < 5 nM | binding result (recombinant human IL-1α): no binding (tested: 1 µM) | binding result (recombinant human IL-1β): no binding (tested: 1 µM) | binding result (recombinant human IL-2): no binding (tested: 1 µM) | binding result (recombinant human IL-3): no binding (tested: 1 µM) | binding result (recombinant human IL-4): no binding (tested: 1 µM) | binding result (recombinant human IL-5): no binding (tested: 1 µM) | binding result (recombinant human IL-6): no binding (tested: 1 µM) | binding result (recombinant human IL-8): no binding (tested: 1 µM) | binding result (recombinant human IL-9): no binding (tested: 1 µM) | binding result (recombinant human IL-10): no binding (tested: 1 µM) | binding result (recombinant human IL-12): no binding (tested: 1 µM) | binding result (recombinant human IL-16): no binding (tested: 1 µM) | binding result (recombinant human IL-17): no binding (tested: 1 µM) | binding result (recombinant human IL-21): no binding (tested: 1 µM) | binding result (recombinant human TNF): no binding (tested: 1 µM) | binding result [3]: no binding (tested: 1 µM) | binding result (recombinant human LTα1β2): no binding (tested: 1 µM)
